No constants are given. Whether binding was seen depends on the method and setting. In cells and extracts the contact can be indirect. Some entries that bind do so weakly or less than the wild type. Sequences can lack the tags named with a protein.
T1: hThrRS-L-Ha/A-FLAG (human) (UniProt A2RTX5)
T1 sequence: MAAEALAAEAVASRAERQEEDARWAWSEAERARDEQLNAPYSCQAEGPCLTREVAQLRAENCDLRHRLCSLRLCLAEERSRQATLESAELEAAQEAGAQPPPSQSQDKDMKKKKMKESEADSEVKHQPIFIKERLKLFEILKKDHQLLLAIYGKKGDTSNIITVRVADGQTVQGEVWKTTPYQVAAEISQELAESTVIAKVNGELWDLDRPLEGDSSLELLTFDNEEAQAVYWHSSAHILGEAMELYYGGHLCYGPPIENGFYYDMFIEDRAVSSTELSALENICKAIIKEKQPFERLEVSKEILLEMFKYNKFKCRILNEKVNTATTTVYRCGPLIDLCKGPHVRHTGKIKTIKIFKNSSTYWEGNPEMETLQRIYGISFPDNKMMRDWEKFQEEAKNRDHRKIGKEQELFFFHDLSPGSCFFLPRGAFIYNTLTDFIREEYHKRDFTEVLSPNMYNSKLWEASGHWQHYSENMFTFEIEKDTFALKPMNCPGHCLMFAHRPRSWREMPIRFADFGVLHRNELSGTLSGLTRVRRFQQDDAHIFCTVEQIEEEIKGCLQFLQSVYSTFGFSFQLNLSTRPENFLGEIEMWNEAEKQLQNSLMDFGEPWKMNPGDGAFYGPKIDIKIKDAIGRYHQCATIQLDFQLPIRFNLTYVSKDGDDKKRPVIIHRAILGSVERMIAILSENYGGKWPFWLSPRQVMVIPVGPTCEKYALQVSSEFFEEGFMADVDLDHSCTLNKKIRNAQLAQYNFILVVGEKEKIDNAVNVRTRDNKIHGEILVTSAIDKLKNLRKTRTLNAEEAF

T2: hThrRS-L-S453D with a C-terminal FLAG tag (human) (UniProt A2RTX5)
T2 sequence: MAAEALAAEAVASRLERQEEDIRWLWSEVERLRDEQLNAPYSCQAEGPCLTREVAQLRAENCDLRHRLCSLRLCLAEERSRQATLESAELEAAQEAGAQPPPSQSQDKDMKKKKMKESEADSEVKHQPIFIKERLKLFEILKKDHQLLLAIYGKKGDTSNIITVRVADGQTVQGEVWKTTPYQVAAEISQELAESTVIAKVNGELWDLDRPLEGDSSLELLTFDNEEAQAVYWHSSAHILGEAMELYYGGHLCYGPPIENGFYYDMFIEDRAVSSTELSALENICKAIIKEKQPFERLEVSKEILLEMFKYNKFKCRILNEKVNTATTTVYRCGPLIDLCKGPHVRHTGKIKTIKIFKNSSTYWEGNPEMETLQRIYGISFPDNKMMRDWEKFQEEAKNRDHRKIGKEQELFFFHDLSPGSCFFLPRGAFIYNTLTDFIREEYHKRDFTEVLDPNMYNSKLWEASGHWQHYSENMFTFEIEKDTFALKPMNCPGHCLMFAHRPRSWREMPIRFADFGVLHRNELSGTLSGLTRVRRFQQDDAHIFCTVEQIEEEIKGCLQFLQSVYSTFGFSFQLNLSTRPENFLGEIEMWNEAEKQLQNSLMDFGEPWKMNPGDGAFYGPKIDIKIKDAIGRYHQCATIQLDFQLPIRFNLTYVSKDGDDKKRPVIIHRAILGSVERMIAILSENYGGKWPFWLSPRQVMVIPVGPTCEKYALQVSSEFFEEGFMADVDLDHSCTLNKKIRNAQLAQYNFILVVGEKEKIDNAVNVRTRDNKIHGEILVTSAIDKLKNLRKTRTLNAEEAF

T3: hThrRS-L-S459D with a C-terminal FLAG tag (human) (UniProt A2RTX5)
T3 sequence: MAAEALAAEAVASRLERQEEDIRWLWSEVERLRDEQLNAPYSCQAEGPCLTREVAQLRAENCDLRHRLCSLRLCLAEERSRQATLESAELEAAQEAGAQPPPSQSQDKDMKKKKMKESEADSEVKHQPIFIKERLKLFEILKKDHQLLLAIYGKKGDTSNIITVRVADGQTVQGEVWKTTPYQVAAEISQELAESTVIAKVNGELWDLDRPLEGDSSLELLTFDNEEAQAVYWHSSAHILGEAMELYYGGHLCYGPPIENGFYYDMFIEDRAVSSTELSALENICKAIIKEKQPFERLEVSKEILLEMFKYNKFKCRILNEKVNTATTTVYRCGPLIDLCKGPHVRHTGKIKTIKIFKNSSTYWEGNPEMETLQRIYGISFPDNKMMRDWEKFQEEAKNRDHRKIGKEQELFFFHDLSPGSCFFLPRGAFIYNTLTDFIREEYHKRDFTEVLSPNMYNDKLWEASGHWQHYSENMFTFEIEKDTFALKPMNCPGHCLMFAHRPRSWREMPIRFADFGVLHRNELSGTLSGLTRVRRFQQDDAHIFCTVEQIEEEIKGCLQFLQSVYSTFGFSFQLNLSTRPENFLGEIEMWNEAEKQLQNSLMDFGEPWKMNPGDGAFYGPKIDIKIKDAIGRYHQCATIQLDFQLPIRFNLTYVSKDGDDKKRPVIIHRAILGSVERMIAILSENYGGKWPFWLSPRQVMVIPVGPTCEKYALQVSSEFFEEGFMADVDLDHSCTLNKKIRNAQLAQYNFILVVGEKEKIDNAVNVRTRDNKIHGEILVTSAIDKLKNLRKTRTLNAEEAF


What was measured:
Assay in all cases: co-IP; FLAG-tagged hThrRS-L or mutant overexpressed in HEK293T; IP with anti-FLAG, Dynabeads protein G, 4°C; endogenous partners detected by western blotting
[1] = biological target: T1, hThrRS-L-Ha/A-FLAG (human)
[2] = biological target: T2, hThrRS-L-S453D with a C-terminal FLAG tag (human)
[3] = biological target: T3, hThrRS-L-S459D with a C-terminal FLAG tag (human)

binding [1] | binding [2] | binding [3] | Binder
binds | binds | binds | native hThrRS, endogenous in HEK293T (enzyme, UniProt P26639 1-723) MFEEKASSPSGKMGGEEKPIGAGEEKQKEGGKKKNKEGSGDGGRAELNPWPEYIYTRLEMYNILKAEHDSILAEKAEKDSKPIKVTLPDGKQVDAESWKTTPYQIACGISQGLADNTVIAKVNNVVWDLDRPLEEDCTLELLKFEDEEAQAVYWHSSAHIMGEAMERVYGGCLCYGPPIENGFYYDMYLEEGGVSSNDFSSLEALCKKIIKEKQAFERLEVKKETLLAMFKYNKFKCRILNEKVNTPTTTVYRCGPLIDLCRGPHVRHTGKIKALKIHKNSSTYWEGKADMETLQRIYGISFPDPKMLKEWEKFQEEAKNRDHRKIGRDQELYFFHELSPGSCFFLPKGAYIYNALIEFIRSEYRKRGFQEVVTPNIFNSRLWMTSGHWQHYSENMFSFEVEKELFALKPMNCPGHCLMFDHRPRSWRELPLRLADFGVLHRNELSGALTGLTRVRRFQQDDAHIFCAMEQIEDEIKGCLDFLRTVYSVFGFSFKLNLSTRPEKFLGDIEVWDQAEKQLENSLNEFGEKWELNSGDGAFYGPKIDIQIKDAIGRYHQCATIQLDFQLPIRFNLTYVSHDGDDKKRPVIVHRAILGSVERMIAILTENYGGKWPFWLSPRQVMVVPVGPTCDEYAQKVRQQFHDAKFMADIDLDPGCTLNKKIRNAQLAQYNFILVVGEKEKISGTVNIRTRDNKVHGERTISETIERLQQLKEFRSKQAEEEF
no binding | binds | binds | ArgRS, endogenous in human cells (enzyme, UniProt P54136 1-660) MDVLVSECSARLLQQEEEIKSLTAEIDRLKNCGCLGASPNLEQLQEENLKLKYRLNILRKSLQAERNKPTKNMINIISRLQEVFGHAIKAAYPDLENPPLLVTPSQQAKFGDYQCNSAMGISQMLKTKEQKVNPREIAENITKHLPDNECIEKVEIAGPGFINVHLRKDFVSEQLTSLLVNGVQLPALGENKKVIVDFSSPNIAKEMHVGHLRSTIIGESISRLFEFAGYDVLRLNHVGDWGTQFGMLIAHLQDKFPDYLTVSPPIGDLQVFYKESKKRFDTEEEFKKRAYQCVVLLQGKNPDITKAWKLICDVSRQELNKIYDALDVSLIERGESFYQDRMNDIVKEFEDRGFVQVDDGRKIVFVPGCSIPLTIVKSDGGYTYDTSDLAAIKQRLFEEKADMIIYVVDNGQSVHFQTIFAAAQMIGWYDPKVTRVFHAGFGVVLGEDKKKFKTRSGETVRLMDLLGEGLKRSMDKLKEKERDKVLTAEELNAAQTSVAYGCIKYADLSHNRLNDYIFSFDKMLDDRGNTAAYLLYAFTRIRSIARLANIDEEMLQKAARETKILLDHEKEWKLGRCILRFPEILQKILDDLFLHTLCDYIYELATAFTEFYDSCYCVEKDRQTGKILKVNMWRMLLCEAVAAVMAKGFDILGIKPVQRM
no binding | binds | binds | native p43 (AIMP1), endogenous in human cells (protein, UniProt Q12904-2 1-336) MLPAVAVSEPVVLRFMIFCRLLAKMANNDAVLKRLEQKGAEADQIIEYLKQQVSLLKEKAILQATLREEKKLRVENAKLKKEIEELKQELIQAEIQNGVKQIPFPSGTPLHANSMVSENVIQSTAVTTVSSGTKEQIKGGTGDEKKAKEKIEKKGEKKEKKQQSIAGSADSKPIDVSRLDLRIGCIITARKHPDADSLYVEEVDVGEIAPRTVVSGLVNHVPLEQMQNRMVILLCNLKPAKMRGVLSQAMVMCASSPEKIEILAPPNGSVPGDRITFDAFPGEPDKELNPKKKIWEQIQPDLHTNDECVATYKGVPFEVKGKGVCRAQTMSNSGIK

— paper PMC6794377
